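Interpolation was linear, between the two tested concentrations surrounding the appropriate level; five concentrations were tested over 48 hours in 96-well plates. GI50 is the concentration that inhibits growth by half. At the TGI there is no net growth.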
System: NCI-H322M lung
Test: NCI tumour cell line growth inhibition, 48 h

In the case of COc1ccc2nc3cc(Cl)ccc3c(NCCNCCCNC(=O)c3cc(-c4ccccc4)nc4ccccc34)c2c1, the TGI is reported as over 100 µM.
Work on FCc1ncc(-c2ccc(C(F)(F)F)cc2)c(NC2CCCCCC2)n1 yielded a GI50 of over 10 µM and a TGI of over 10 µM.
With COc1ccc(C2CC(n3nnnc3-c3ccccc3)=NN2)cc1 (centres undefined) the GI50 was 4.52 µM and the TGI was over 100 µM.
O=c1[nH]c(=O)n(C2OC3COC2C3O)cc1F (centres undefined) showed a TGI of over 100 µM.
Work on Cn1cc(CNCC2CCN(c3ncc(C(=O)NO)cn3)CC2)c2ccccc21 yielded a GI50 of 0.0204 µM and a TGI of 5.03 µM.
O=C1Nc2cccc3cc(NCC(O)CCl)cc1c23 (centres undefined) showed a TGI of over 100 µM.
In the case of CSc1c(C#N)c2n(c3ccccc13)c1ccccc1[n+]2C, the TGI is reported as over 100 µM.
CN(Cc1cnc2nc(N)nc(N)c2n1)c1ccc(C(=O)NC(CCC(=O)NC(P(=O)(O)O)P(=O)(O)O)C(=O)O)cc1 (centres undefined) gave a TGI of over 100 µM.
For O=C1CCC(O)=C1O, the TGI was over 100 µM.
COC(=O)[C@@]12CCCC(=O)[C@@H]1[C@H]1CCCC[C@H]12 showed a TGI of over 100 µM.
Work on CC(C)CNC(=O)Cn1c(-c2ccccc2)cc2ccccc21 yielded a TGI of over 100 µM.
In the case of C/C(=N\NC(N)=S)c1nc2ccc(Cl)cc2[nH]1, the GI50 is reported as 1.29 µM and the TGI is reported as 14.5 µM.
CCOc1c(Cl)cc(CNC(C)C(O)c2ccccc2)cc1OC (centres undefined) showed a GI50 of 51.5 µM and a TGI of over 100 µM.
N#CC(NNC(=O)c1ccccc1O)c1cccc(O)c1 (centres undefined) showed a TGI of over 100 µM.
For Cc1sc2ccccc2[n+]1CCC(=O)O, the TGI was over 100 µM.
In the case of CC1(C)Oc2ccc(NC(=O)CCC(N)C(=O)O)cc2O1 (centres undefined), the TGI is reported as over 100 µM.
Cc1c2ccc(N(C)c3ccnc(Nc4cccc(S(N)(=O)=O)c4)n3)cc2nn1C showed a GI50 of 13.3 µM and a TGI of over 25 µM.
For O=S1(=O)c2ccccc2NC(=S)CC1c1ccccc1 (centres undefined), the TGI was over 100 µM.
Work on CN=C1SC(=Nc2ccc(N(C)C)cc2)N1C yielded a TGI of over 100 µM.
For O=C1C2Cc3ccccc3CN2C(=O)N1CCN1CCCC1 (centres undefined), the TGI was over 100 µM.
Work on Cn1nc(S(N)(=O)=O)s/c1=N/C(N)=S yielded a TGI of over 100 µM.
In the case of CCOC(=O)c1cc(/C=C/C(C)=C/C(=O)OC)n(C)c1C, the TGI is reported as over 100 µM.
OCC1OC(n2cnc3c(/C=C(/O)c4ccccc4)ncnc32)C(O)C1O (centres undefined) gave a TGI of over 100 µM.
